PubChem BioAssay AID651820 (National Center for Advancing Translational Sciences (NCATS), 2012)
Screen size: about 340,000 compounds; about 12,000 (3.5%) were called active. Inconclusive results, whose numbers are uncertain, are shown with a selection of clear calls. The call rests on the fitted dose curve; in most records, active means well fitted inhibition curve with a large enough effect; inconclusive means small, poorly fitted or top-dose-only effect, or another doubt; inactive means no such curve, though single readings can be large or run the other way. Potencies of inconclusive entries are left out as doubtful fits.

Test: qHTS Assay for Inhibitors of Hepatitis C Virus (HCV)
Conditions: Huh7.5.1 HCVcc-Cre (HCVcc is cell-culture hepatitis C virus) infection, luciferase reporter, 44 h; activity change, negative = inhibition: at 41.8 µM (top of the series)
In short: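 Compounds are dispensed onto cells plated 4 h earlier at 1,000 per well, with HCVcc-Cre virus (about 0.5 moi) added next. Following 44 h of culture, luminescent signal is measured for 15 sec after 15 min with substrate at room temperature.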
On the % scale 0 is the no-effect control and ±100 the full control effect; potency means the concentration at half of the fitted maximal effect; tags describe the fitted curve by direction and shape.

Row | SMILES | Potency | activity change, negative = inhibition
1 | N/C(Cc1ccccc1)=N\OC(=O)c1cccc2ccccc12 | inconclusive [inhibitor, single point] | 
2 | O=C(NCC1CC1(Cl)Cl)Nc1ccc(Cl)c(Cl)c1 (configuration not stated) | inconclusive [inhibitor, single point] | 
3 | O=C(Nc1ccccc1N1CCCCC1)c1ncoc1-c1cccc(F)c1 | inconclusive [inhibitor, single point] | 
4 | COC(=O)C1=C(C)N(Cc2ccccc2)C(=NCC(C)C)N[C@H]1c1cccc(F)c1 |  | inactive: 37.6%
5 | COc1ccc(Nc2nc(N)nc(C(F)(F)F)n2)c(OC)c1 | inconclusive [inhibitor, single point] | 
6 | COc1cc(/C=N/Nc2nc(N3CCCC3)nc(N3CCCC3)n2)ccc1OCc1ccccc1F | inconclusive [inhibitor, partial curve, poor fit] | 
7 | O=C(CSc1ncnc2c1oc1ccccc12)Nc1cccc(Cl)c1 | inconclusive [inhibitor, single point] | 
8 | COc1ccc2c(c1)[C@H]1[C@H](CO2)[C@H](c2ccccc2)[C@]2(C)C(=O)Nc3cc(C)ccc3C(=O)N12 | inconclusive [inhibitor, partial curve] | 
9 | Cc1ccc(NC(=O)N(Cc2ccco2)Cc2cc3cc(C)cc(C)c3nc2Cl)cc1 | inconclusive [inhibitor, partial curve] | 
10 | CCOCCCNc1ccc(N2C(=O)C3CCCCC3C2=O)cc1[N+](=O)[O-] (configuration not stated) | inconclusive [inhibitor, single point] | 
11 | Cc1cc(Cl)ccc1OC(C)C(=O)N1CCCN(C(=O)C(C)Oc2ccc(Cl)cc2C)CC1 (configuration not stated) | inconclusive [inhibitor, single point] | 
12 | C/C(=N\NC(=O)c1ccc(Cl)cc1)c1ccc2[nH]ccc2c1 |  | inactive: 18%
13 | COc1ccccc1C(CNC(=O)c1ccc(-c2ccccc2Cl)o1)N1CCCC1 (configuration not stated) | inconclusive [inhibitor, single point] | 
14 | COc1ccc(C(=O)NCC23C=CC(O2)C2C(=O)N(Cc4ccccc4)C(=O)C23)cc1 (configuration not stated) | inconclusive [inhibitor, partial curve] | 
15 | Cc1cc(C)c(C)c(OCC(=O)O/N=C(\N)c2cccnc2)c1 | inconclusive [inhibitor, single point] | 
16 | CCOc1ccc(CNc2ccc(N3CCCC3)cc2)cc1 |  | inactive: -22.1%
17 | N#C/C(=C/c1ccc(CNS(=O)(=O)c2ccccc2)o1)C(=O)NCc1ccccc1 | inconclusive [inhibitor, partial curve] | 
18 | CC1=C(C(=O)Nc2ccccc2C)C(c2ccc(C)o2)n2c(s/c(=C/c3ccccc3)c2=O)=N1 (configuration not stated) | inconclusive [inhibitor, single point] | 
19 | O=C(NCCOC(=O)c1ccc(C(=O)OCCNC(=O)c2cccnc2)s1)c1cccnc1 | active: 22.4 µM | 
20 | O=C(CN1CCC(C(=O)c2ccc(Cl)cc2)CC1)NC1CCCC1 | inconclusive [inhibitor, single point] | 
21 | COc1ccccc1C(=O)Nc1ccc2c(c1)CC1(C(=O)N(C)C(=O)N(C)C1=O)C1CCCN21 (configuration not stated) |  | inactive: 1.91%
22 | COc1ccc2[nH]c(C(=O)N3CCC(CO)(Cc4cccc(C(F)(F)F)c4)CC3)c(C)c2c1 | inconclusive [inhibitor, single point] | 
23 | COc1ccc(OC)c(NC(=O)c2cc3ccccc3o2)c1 | inconclusive [inhibitor, full curve, poor fit] | 

Row | SMILES | Potency | activity change, negative = inhibition
24 | CC(C)=CCCC(C)CN1CCC(N2CCC(C(=O)N3CCOCC3)CC2)CC1 (configuration not stated) | active: 0.891 µM | 
25 | Cc1ccccc1Cn1cc(NC(=O)CSc2nc3c(c(C(F)(F)F)n2)CCc2ccccc2-3)cn1 | active: 12.6 µM | 
26 | Cc1oc(-c2ccccc2Cl)nc1Cn1cccc1C1=NC(c2ccccc2)CO1 (configuration not stated) | active: 11.2 µM | 
27 | FC(F)Oc1ccc(NC(=S)NCc2ccco2)cc1Cl | inconclusive [inhibitor, partial curve] | 
28 | COc1ccc(CSCC(=O)Nc2ccccc2)cc1[N+](=O)[O-] |  | inactive: -3.19%
29 | COc1ccccc1CC(=O)Nc1cccc(C(=O)Nc2nccs2)c1 | inconclusive [inhibitor, single point] | 
30 | CCN(CC)C(=O)Cn1cc(C(=O)C(=O)N2CCN(c3ccc([N+](=O)[O-])cc3)CC2)c2ccccc21 | inconclusive [inhibitor, single point] | 
31 | COc1cc(Cl)c(C)cc1NC(=O)CNC(=O)Cn1cnc2ccccc2c1=O | inconclusive [inhibitor, single point] | 
32 | CCCCn1nc(NC(=O)c2cccs2)c2cc3cc(OC)ccc3nc21 | active: 10 µM | 
33 | Cc1ccc(S(C)(=O)=O)cc1C(=O)Nc1cccc(S(=O)(=O)N2CCCCCC2)c1 | inconclusive [inhibitor, partial curve] | 
34 | O=C(O)c1cc(-c2ccc3c(c2)OCO3)nc2ccccc12 |  | inactive: 8.46%
35 | O=C(N/N=C1\CCCc2oc(C(=O)O)cc21)c1ccccc1 |  | inactive: 9.33%
36 | O=c1c2ccccc2nc(SCc2nnc(-c3ccccc3)o2)n1-c1ccccc1 | inconclusive [inhibitor, single point] | 
37 | O=C(NCc1ccco1)c1ccc(Cn2c(=O)c3sccc3n(Cc3cccc(F)c3)c2=O)cc1 | inconclusive [inhibitor, single point] | 
38 | CCOc1ccc(-c2csc(Cn3c(CN4CCN(C)CC4)nc4ccccc4c3=O)n2)cc1 | inconclusive [inhibitor, partial curve] | 
39 | COc1ccc(-c2cc(C(F)(F)F)n3nc(C(=O)N4CCCCC4)cc3n2)cc1OC | inconclusive [inhibitor, single point] | 
40 | Cc1ccc(C(=O)CSc2nnc(CNc3ccc(C)cc3C)o2)cc1 | inconclusive [inhibitor, partial curve] | 
41 | COCCn1c(C)cc(/C=C2/NC(=O)N(c3cccc(Cl)c3)C2=O)c1C | inconclusive [inhibitor, partial curve] | 
42 | CCOC(=O)c1cc2c(ccn2C)n1CC(=O)N(Cc1ccccc1)c1ccccc1 | inconclusive [inhibitor, single point] | 
43 | Cc1ccc(-c2noc(C3CCCN(C(=O)c4cccc(F)c4)C3)n2)cc1 (configuration not stated) | inconclusive [inhibitor, single point] | 
44 | CCCCN(CCCC)C(=O)CSc1nnc(-c2cc(OC)c(OC)c(OC)c2)o1 | inconclusive [inhibitor, single point] | 
45 | O=C(Nc1nnc(COc2ccc(Cl)cc2)s1)C1CCCO1 (configuration not stated) |  | inactive: 17.2%
46 | CCCC(=O)Nc1ccc(Sc2ccc([N+](=O)[O-])cc2)cc1 | inconclusive [inhibitor, partial curve] | 

Row | SMILES | Potency | activity change, negative = inhibition
47 | C=CCn1c(=NC(=O)c2ccco2)sc2cc(C(=O)OC)ccc21 | inconclusive [inhibitor, partial curve] | 
48 | O=C(Nc1cnccn1)c1ccc(Cl)cc1 |  | inactive: -7.86%
49 | Cc1ccc2cc(CN(CCN3CCOCC3)C(=O)NCc3ccccc3)c(=O)[nH]c2c1C |  | inactive: 14.8%
50 | Cc1ccc(CS(=O)Cc2ccc(C(=O)NCc3ccccc3Br)o2)cc1 (configuration not stated) | inconclusive [inhibitor, single point] | 
51 | CCC(=O)c1ccc(OCC(=O)Nc2ccccc2C(=O)N2CCCCC2)cc1 | inconclusive [inhibitor, single point] | 
52 | CCOC(=O)c1c(NC(=O)c2cccc([N+](=O)[O-])c2C(=O)O)sc2c1CCCC2 | inconclusive [inhibitor, single point] | 
53 | COc1ccc(CNC(=O)C(c2cccs2)N(Cc2ccco2)C(=O)Cc2cccs2)cc1 (configuration not stated) | inconclusive [inhibitor, single point] | 
54 | C#CCn1cc(/C=C2\NC(=O)NC2=O)c2ccccc21 |  | inactive: -10.2%
55 | CC(=O)Nc1ccc(NC(=O)c2ccccc2-n2cnnn2)cc1 |  | inactive: 9.46%
56 | Cc1ccc(CCS(=O)(=O)c2ccc(C(C)(C)C)cc2)cn1 | inconclusive [inhibitor, single point] | 
57 | CN1CCN(CCCNC(=O)c2ccc3c(c2)N(Cc2ccc(F)cc2)CCS3)CC1 | inconclusive [inhibitor, single point] | 
58 | NC(=S)NN=C1CCCCCCCCCC1 | active: 11.2 µM | 
59 | Cc1ccc(C(=O)Nc2ccc3c(c2)CCC3)cc1S(=O)(=O)N1CCOCC1 | inconclusive [inhibitor, partial curve] | 
60 | O=c1c2nncn2c2cccnc2n1CCNc1ncc(C(F)(F)F)cc1Cl |  | inactive: -1.92%
61 | Cc1nc(C)c(-c2ccc(SCc3cccc(F)c3)nn2)s1 | inconclusive [inhibitor, partial curve] | 
62 | Cc1cc(-c2ccc(C(C)C)c(S(=O)(=O)NCc3ccco3)c2)on1 | inconclusive [inhibitor, single point] | 
63 | CN(C)C(=O)c1c(NC(=O)c2ccco2)sc2c1CCCCC2 | inconclusive [inhibitor, full curve] | 
64 | Cc1c(CNC(=O)C2CC2)c(-n2cccc2)n(Cc2ccccc2)c1C | inconclusive [inhibitor, single point] | 
65 | COc1ccccc1NS(=O)(=O)c1ccc2oc(N)nc2c1 |  | inactive: 1.6%
66 | O=C(COC(=O)c1ccccc1[N+](=O)[O-])c1ccc2c(c1)OCO2 |  | inactive: 4.13%
67 | CC(=O)c1c(N2CCN(Cc3ccc4c(c3)OCO4)CC2)nc(=S)n(-c2ccccc2)c1C | inconclusive [inhibitor, partial curve] | 
